Experimental data reported in the supplement of paper PMC3334620.
Over roughly 33,000 sequences, “E-score (-0.5 to 0.5)” has its median near -0.016; the highest 2% begin near 0.31. Some of the results follow.

target: Cst6 (UniProt P40535); assay: PBM E-score (8-mer binding enrichment) (E-score (-0.5 to 0.5)); higher = stronger / more preferred TF binding; most listed sequences are background and not binding sites; conditions: protein concentration: 200 nM; construct: GST-DNA-binding domain
Method in brief: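 PURExpress in vitro transcription/translation supplied GST-tagged yeast transcription factors, either full-length or DNA-binding domain. Applied at about 100-200 nM to universal all-10-mer Agilent arrays double-stranded by primer extension, the bound protein was detected with fluorescent anti-GST. E-scores, modified Wilcoxon-Mann-Whitney statistics, were given by the Universal PBM Analysis Suite to ungapped eight-base words pooled with their reverse complements after masliner normalisation.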

Sequence	PBM E-score
CATCTTAA	0.211
CGAGGTAG	-0.349
AACCTGAG	-0.0491
CTCAACGC	-0.0592
AAATGACG	0.466
CGCTTCAG	-0.105
GTACAATA	0.164
TACGGCGA	0.23
AGAGCATC	-0.0634
GGCGGCGA	-0.0549
CCGAGTAC	-0.174
CCTATAAC	-0.0781
AAGTCGTA	-0.0323
ATATATCG	0.228
ACTCCCTG	-0.128
GGGGGCAA	-0.198
CAGACCTC	-0.0708
CAGGGCAA	-0.117
AGTCAACA	0.15
CATCAAGA	0.104
AACGTAAC	0.329
AAAAGTCT	-0.0201
TGAATACA	0.218
CAAAATAG	-0.0783
AGCGACAG	-0.155

Sequence	PBM E-score
AGCATGGA	-0.0241
AGCGACTC	-0.325
GTGGTGTA	0.0521
GCTAGTCA	-0.0571
GGTGAAAA	0.15
CGCAGAGA	-0.0733
AATAAATA	0.39
AGCTCCTG	-0.215
AATAAAGG	0.0727
TGAGTTAA	0.111
CCCAAGAG	-0.164
AGGGCACC	-0.282
AGAAGCCG	-0.0196
GATCTCCC	-0.231
ACAACAAT	0.0902
ATGCAGTC	-0.00946
CACCCGAG	-0.179
ACTTGGCT	-0.2
AGCTATTC	-0.0621
GGCGCTCA	-0.0432
CTAACAGA	0.0449
GTGCATAA	0.0813
GTGGTCCA	-0.0434
ACCAAACT	0.0423
ACCATGAA	0.0849

Sequence	PBM E-score
AGTTGGCC	-0.175
GCTTCCAC	-0.155
ATGCCAGA	0.0534
CGGGCGCC	-0.00681
AATTGAGG	0.0898
AAGATCCT	-0.0251
GCCCAAGA	-0.225
ATATATCA	0.155
ACCGCCTC	-0.223
AAGGCAAC	0.113
ACGGGACA	-0.177
CAGATTTA	0.193
AAGGTCGC	-0.115
ACAGATCT	0.02
CTATTCAG	0.111
AGAGGGGC	-0.279
AATCACCC	-0.00614
GCTGTAAC	0.0807
AAAGATAC	0.191
ATACTCTA	0.0421
GTCGCCGA	0.0105
AACCCGTC	-0.102
GCAGTAAC	-0.065
ACTTCAAC	0.0206
GAGACACA	-0.0694

Sequence	PBM E-score
AAAAACTA	0.22
CTTAGTCC	-0.194
TCACTAGA	0.232
CGTGTGGA	-0.153
TACCGCTA	-0.171
TAGCCGAA	-0.139
AGAACCGC	0.101
AGACACTC	-0.142
CAGTAATG	0.0646
CGTTATAC	0.104
CCTCGGCC	-0.205
ACACCCAC	-0.169
CAAATAAG	0.09
AGTAACTA	0.125
ATTAGATG	0.226
CATTCAAC	0.14
TAAGGGAA	0.0135
CATCCGGC	-0.277
TTAAAGAA	0.146
CTCGCAAC	-0.00192
GCCTACGC	-0.0546
AATAATAG	0.209
CATCGCGC	-0.0406
AAAGTATG	0.0197
CAAAAAAG	0.254

Sequence	PBM E-score
ACGTGGTA	0.0738
GATACCAA	0.058
CTTGACGA	0.00985
TCGTTTCA	0.0851
CGAGTCGA	-0.0258
ACATTGCC	-0.0654
CGGGAGAG	-0.377
AGCGAATC	-0.0537
GATACTCC	-0.0696
GCCTAGAC	-0.224
CAGTATAA	0.17
AAACAGTC	-0.0973
ACACTTAA	0.105
AACCCCGT	-0.104
ATGTAGGG	-0.209
ACTGGATA	0.163
CTTGCTAC	-0.163
ACGTGGTC	0.11
AGTTAATG	0.234
ATTAATCC	0.121
CCCACGCA	-0.0607
TCTGCTAA	-0.00199
ACTCCTCT	-0.18
CTATTCTC	-0.138
CTGGGCAC	-0.196

Sequence	PBM E-score
CATACTAA	0.124
ACTGATAA	0.235
TAGAGATA	0.12
CCGACGTC	0.2
AGGAGGGG	-0.121
GCACATTA	0.0946
AACTCGCA	0.111
AAATTGAA	0.187
CTCACGAA	0.0504
CCTAGCCA	-0.181
ATATGGGA	-0.0946
AAGAGAAC	0.141
CAAAGAAG	0.0502
CCATGGAG	-0.306
GACAGCAC	0.0288
AGCGGGTC	-0.392
GACAGAAA	0.311
CGCAGCAG	-0.0698
GTGCCGAA	0.13
AGGCAGGA	-0.151
AAGAACAG	0.0582
AGTTGTAC	-0.0957
CGAGAGTC	-0.292
CGGCTTAC	0.0799
AAGGAAAT	0.165

Sequence	PBM E-score
ATCTGTCC	-0.106
ACACCCGT	-0.172
GTCCGAAA	0.163
CGCAAGGA	-0.158
GGGCTATA	-0.21
AGTGTGTC	0.0534
CGAACAAG	-0.0308
ATTAGAGA	0.116
GCATGATA	0.122
CCAGTCAG	-0.162
ACCACTAA	0.138
ACGACAAT	0.128
AAGGTGGT	-0.0498
GCGGCACC	0.311
CGCTCTTA	0.172
CTGACCCA	-0.295
CCCGTTGC	-0.177
GCTGCGAC	-0.186
GCAAGTTA	0.0542
TGTGCACA	-0.076
CAACGTAG	0.0788
ATACGACG	0.0843
